Experimental data from PMC7819943, “Rice protein-binding microarrays: a tool to detect cis-acting elements near promoter regions in rice”.
This is one part of the list.

target: T1, OsWOX13 (Oryza sativa, UniProt Q5QMM3 1-267); assay: protein-binding microarray (RPBM); PBS, 2% BSA, 51.3 ng/ul salmon testes DNA, 50 uM zinc acetate, 200 nM TF, 25 C, 1 h; high values mean tight binding; conditions: protein: recombinant; tags: N-terminal polyhistidine and DsRed monomer fusion (pET32a); label: CyDye5-dUTP incorporated in the synthesized complementary strand; 3' TTTTT single-stranded linker to array surface; dsDNA, one strand shown
T1 sequence: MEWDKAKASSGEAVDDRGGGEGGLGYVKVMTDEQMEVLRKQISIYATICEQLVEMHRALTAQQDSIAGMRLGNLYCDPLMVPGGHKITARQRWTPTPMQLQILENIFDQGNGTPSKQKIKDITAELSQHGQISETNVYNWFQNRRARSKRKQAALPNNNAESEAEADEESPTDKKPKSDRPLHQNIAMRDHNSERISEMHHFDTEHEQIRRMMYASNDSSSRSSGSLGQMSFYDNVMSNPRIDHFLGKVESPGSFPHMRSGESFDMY
Summary of the method: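 Transcription factors were made in E. coli BL21-CodonPlus as N-terminal fusions to a polyhistidine tag and DsRed, then purified on Ni–NTA. After primer extension with Cy5-dUTP and blocking with 2% BSA, a custom Agilent array was exposed for 1 h at 25 °C to 200 nM protein in PBS, 2% BSA, salmon testes DNA and 50 µM zinc acetate. Washed arrays were scanned on an Axon 4000B, and the binding signal is per-feature fluorescence intensity in arbitrary units.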

Row | Sequence | binding signal
1 | ACTAGTGGATTGATTCCCGGTCTCTTATTGTCCCTATCATCGGAGTCACCTAGTGCAG | 12900 fluorescence intensity (a.u.)
2 | AGTAAATTAAACCACAATCATGGTCGTTACAAACACGAATCGGAGTCACCTAGTGCAG | 19300 fluorescence intensity (a.u.)
3 | ACCCAATAGATTCAACGAGATAATTATTATCAGTGGGTGTCGGAGTCACCTAGTGCAG | 4350 fluorescence intensity (a.u.)
4 | AAAAGAATCAGATTGAATTTCAAACTTTCGGACCAAATTTCGGAGTCACCTAGTGCAG | 4180 fluorescence intensity (a.u.)
5 | CTTAAAACTTGATCTAAATTAGAGTAAATTAAGCAAGAGGCGGAGTCACCTAGTGCAG | 21300 fluorescence intensity (a.u.)
6 | GAGATTATTTGAAATGTATATCTAGACTCATCTACCTCATCGGAGTCACCTAGTGCAG | 4140 fluorescence intensity (a.u.)
7 | GCTGTAGAAATTTCTCCTTCTTTGTTAAATGTATGTCTTTCGGAGTCACCTAGTGCAG | 3550 fluorescence intensity (a.u.)
8 | ACCAAATTAAGTGTTGTTTTGCCAAAATCTTGACAATTATCGGAGTCACCTAGTGCAG | 6780 fluorescence intensity (a.u.)
9 | TTGATTGAAATTGAAACGATATGATGGAAAAGTTAGAAGTCGGAGTCACCTAGTGCAG | 48800 fluorescence intensity (a.u.)
10 | AAATTTTGATTTTAAAACTTAATTGTAAAGTTGACTTTAACGGAGTCACCTAGTGCAG | 9040 fluorescence intensity (a.u.)
11 | GGGGATTGAGATCTTGAGGTGGCACGGACACTAGACAACACGGAGTCACCTAGTGCAG | 4470 fluorescence intensity (a.u.)
12 | CCGAAATTGCTGCACAACTGACTTTACCCTTATTAAAAGACGGAGTCACCTAGTGCAG | 4510 fluorescence intensity (a.u.)
13 | CCAATTAACTCTAAAGATTATGGCACACCTCCATAGTTTCCGGAGTCACCTAGTGCAG | 8730 fluorescence intensity (a.u.)
14 | ACTAAATTGTTGCCCATTTATCCTAGCTATATAGTAGCTACGGAGTCACCTAGTGCAG | 3980 fluorescence intensity (a.u.)
15 | TATAACATAAAATTTAATCCTTGATCCAAATACCACCTGACGGAGTCACCTAGTGCAG | 3770 fluorescence intensity (a.u.)
16 | GAAAACACAATTACACAATGGATTATTCTAACTTAAAATGCGGAGTCACCTAGTGCAG | 5660 fluorescence intensity (a.u.)
17 | TAAGATTGATTTTGAGAAGCCTATGATATGATAGAGTTTACGGAGTCACCTAGTGCAG | 33600 fluorescence intensity (a.u.)
18 | TAGATTGGCAATAAATATTTGGCATTTAGAATAATACGTCCGGAGTCACCTAGTGCAG | 38900 fluorescence intensity (a.u.)
19 | ATCCTTGAGACATAAATTAATTAAATAATATATGGGCCAACGGAGTCACCTAGTGCAG | 8810 fluorescence intensity (a.u.)
20 | TTCATAAATTTGTCGGTCACTTTCGGCTGATCCGGGTTTCCGGAGTCACCTAGTGCAG | 5220 fluorescence intensity (a.u.)
21 | GATTAATTAGGCTCAATATATTCATCTCGCGAATTAGTCCCGGAGTCACCTAGTGCAG | 33000 fluorescence intensity (a.u.)

Row | Sequence | binding signal
22 | CTCTAAATCATAAAATAGTTAATTCATACAATAGTTACCTCGGAGTCACCTAGTGCAG | 4150 fluorescence intensity (a.u.)
23 | AGGTGATTTGGTTTTGTAAATTCAGCAACCTGTTCTATCTCGGAGTCACCTAGTGCAG | 27700 fluorescence intensity (a.u.)
24 | TACTAAATTAATAAACAAATTTATAGTGCCTTCTACACATCGGAGTCACCTAGTGCAG | 27200 fluorescence intensity (a.u.)
25 | AAAAGGTTAATTACCCGACTATGCAAATGAACAAGTACCTCGGAGTCACCTAGTGCAG | 4550 fluorescence intensity (a.u.)
26 | TTTGCTAATGACAAATTAATTAGGCTTAATAAATTCGTCTCGGAGTCACCTAGTGCAG | 41500 fluorescence intensity (a.u.)
27 | CGTAGTAATATCACCTTGATATAATTGACCGAGTTCAATACGGAGTCACCTAGTGCAG | 10900 fluorescence intensity (a.u.)
28 | TAAACTTAATTATAAATGTGCTAATGAACTATCTAGTTTTCGGAGTCACCTAGTGCAG | 13700 fluorescence intensity (a.u.)
29 | GCGCTGTGGATTGGTTGTGTCTTTTCTTGTATATAAACGCCGGAGTCACCTAGTGCAG | 3960 fluorescence intensity (a.u.)
30 | TTTAAAATTTAAGGTGATTGAATTAAGAAAGTAGTGCTCCCGGAGTCACCTAGTGCAG | 45000 fluorescence intensity (a.u.)
31 | TTCGGTGACTAGCTAATTAAGCTCGCCGCTAATCACTTGGCGGAGTCACCTAGTGCAG | 19600 fluorescence intensity (a.u.)
32 | TCCGATTCCAATCCAATCCAATCCGATTCAGAAGTAGAGCCGGAGTCACCTAGTGCAG | 4080 fluorescence intensity (a.u.)
33 | TTGGAAGATTAATAGGCTATTGTTAATTCTTACTGCCGGCCGGAGTCACCTAGTGCAG | 4940 fluorescence intensity (a.u.)
34 | TGGTGGCCCGGCGGGCGGGCGGGGCGGGGCGGACGAACGGCGGAGTCACCTAGTGCAG | 6740 fluorescence intensity (a.u.)
35 | ATGCCAATCCGTGGGATAAATTGATTATGTGCTAATGAATCGGAGTCACCTAGTGCAG | 33000 fluorescence intensity (a.u.)
36 | TATTCAATTATAGATTTAACGAAATTATACTGGTATTGTACGGAGTCACCTAGTGCAG | 37400 fluorescence intensity (a.u.)
37 | AATTTTAACTGAATATTATCTAAACTTCAAATATGACTGGCGGAGTCACCTAGTGCAG | 13100 fluorescence intensity (a.u.)
38 | GGCAACAGCAAATTAGTCACATTCTACCTTGAGGTAAGGTCGGAGTCACCTAGTGCAG | 3590 fluorescence intensity (a.u.)
39 | TCTGATGTGAGGATAATCGGGGATGGCGTCTGTTTATCCTCGGAGTCACCTAGTGCAG | 3280 fluorescence intensity (a.u.)
40 | AATTCAAATTTAAATTTGAATCGGATATATAAACTTTGACCGGAGTCACCTAGTGCAG | 12100 fluorescence intensity (a.u.)
41 | TTAATAATTATTATGATGTGACAAAGAACATCGGATGCATCGGAGTCACCTAGTGCAG | 40000 fluorescence intensity (a.u.)
42 | AATATAATTAAGTAATCAATACTATTATTATAAGTTGATACGGAGTCACCTAGTGCAG | 17200 fluorescence intensity (a.u.)
